# Test results from paper PMC4336329 (PLoS ONE, 2015).
# Out of some 310,000 compounds screened, about 2,200 (0.71%) showed an effect of 50% or more. Effects have a minus sign here. Some of the results follow.
# Biological target: human ether-à-go-go-related gene (hERG) potassium channel (human, UniProt Q12809)
# Experiment: primary screen, population patch clamp on CHO cells stably expressing hERG
# Sequence of human ether-à-go-go-related gene (hERG) potassium channel (Q12809 whole entry, looked up): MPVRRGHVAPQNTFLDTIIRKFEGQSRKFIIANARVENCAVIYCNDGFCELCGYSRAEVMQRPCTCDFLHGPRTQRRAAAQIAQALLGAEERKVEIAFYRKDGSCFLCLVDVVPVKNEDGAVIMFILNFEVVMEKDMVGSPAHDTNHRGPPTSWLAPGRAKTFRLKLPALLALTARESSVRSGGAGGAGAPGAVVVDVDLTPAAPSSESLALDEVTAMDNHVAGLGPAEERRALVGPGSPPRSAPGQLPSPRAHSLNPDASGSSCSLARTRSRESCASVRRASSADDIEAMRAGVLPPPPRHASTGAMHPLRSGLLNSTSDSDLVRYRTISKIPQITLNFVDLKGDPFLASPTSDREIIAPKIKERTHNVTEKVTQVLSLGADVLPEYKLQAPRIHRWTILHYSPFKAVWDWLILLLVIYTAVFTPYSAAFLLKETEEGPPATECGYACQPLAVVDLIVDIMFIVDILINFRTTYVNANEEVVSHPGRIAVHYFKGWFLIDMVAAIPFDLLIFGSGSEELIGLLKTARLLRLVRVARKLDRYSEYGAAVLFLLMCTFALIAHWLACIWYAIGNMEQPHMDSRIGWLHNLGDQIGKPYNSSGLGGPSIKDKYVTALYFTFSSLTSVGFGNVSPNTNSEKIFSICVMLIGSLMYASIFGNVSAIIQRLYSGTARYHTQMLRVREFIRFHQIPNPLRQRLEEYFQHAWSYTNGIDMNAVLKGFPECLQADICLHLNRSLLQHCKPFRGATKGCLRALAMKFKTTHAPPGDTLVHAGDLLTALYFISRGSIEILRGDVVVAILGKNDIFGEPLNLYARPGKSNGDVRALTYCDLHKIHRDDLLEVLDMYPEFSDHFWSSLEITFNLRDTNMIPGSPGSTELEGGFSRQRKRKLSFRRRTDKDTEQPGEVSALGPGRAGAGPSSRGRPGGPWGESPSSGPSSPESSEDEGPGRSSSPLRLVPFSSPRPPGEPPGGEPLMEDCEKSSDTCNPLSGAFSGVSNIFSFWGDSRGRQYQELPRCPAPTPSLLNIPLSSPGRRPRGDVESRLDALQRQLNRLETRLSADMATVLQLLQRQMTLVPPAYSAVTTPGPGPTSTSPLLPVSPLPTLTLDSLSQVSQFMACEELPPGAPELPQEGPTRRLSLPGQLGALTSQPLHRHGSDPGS
row,SMILES,"hERG current change (%, negative = inhibition) at 1uM [%]"
1,O=C(O)CNC(=O)c1ccc(NC(=O)/C(=C/c2ccccc2)NC(=O)c2ccccc2Br)cc1,16.1
2,COc1ccc(N2CCN(C(=O)c3csc4ccccc34)CC2)cc1,-0.689
3,O=C(CSc1nc2ccccc2c2c1CCCC2)N1CCOCC1,8.2
4,Cc1ccc(CNC(=O)c2nnn(CC(=O)Nc3cc(C)cc(C)c3)c2N)cc1,5.99
5,COc1ccc(C2=NS(=O)(=O)N(C)C(C(=O)Nc3ccc(C)cc3)=C2)cc1,8.9
6,CCCN(CC1COc2ccccc2O1)C(=S)Nc1ccc(C)cc1 (centres unmarked),12.1
7,CC(C)c1nc(=S)c2ccccc2[nH]1,-0.563
8,Cc1ccc(Cn2nnc3c(=O)[nH]c(C(=O)NCc4ccco4)nc32)cc1,-5.8
9,CCn1c(SCC(=O)N2c3ccccc3Sc3ccccc32)nnc1-c1ccco1,5.06
10,O=C(Nc1ccccc1)N1CCCN(Cc2ccccc2F)C1,6.24
11,CCOC(=O)N(C)S(=O)(=O)c1ccccc1[N+](=O)[O-],5.45
12,O=C(COC(=O)c1ccc2c(c1Cl)C(=O)c1ccccc1C2=O)NC1CCCCC1,10.3
13,Cc1cccc(-n2c(N)cc(=O)nc2SCC(=O)Nc2cc(C)on2)c1,5.62
14,COc1ccc(C(=O)N/C(=C\c2cn(C)c3ccccc23)C(=O)OCCN(C)C)cc1,4.2
15,O=C(CCCn1cncn1)N1CCCC(Nc2ccc(F)cc2)C1 (centres unmarked),12.7
16,CC(O)CSc1nc2c(c(=O)n(C)c(=O)n2C)n1CCCc1ccccc1 (centres unmarked),2.29
17,Cc1ccc(C(=O)N/C(=C\c2ccco2)C(=O)NCCCn2ccnc2)cc1,-64.1
18,CSc1sc(-c2n[nH]c(=S)n2C)c2c1C=CCC2,3.94
19,Cc1ccc(NC(=S)NC2CC3CCCC(C2)N3Cc2cccs2)cc1 (centres unmarked),-18.2
20,CCC(=O)Nc1ccc(S(=O)(=O)Nc2c(C)nc3nc[nH]n3c2=O)cc1,8.32
21,CCCCN(C(=S)Nc1cccc(C)c1C)c1c(N)n(CCC)c(=O)[nH]c1=O,7.35
22,O=C(CCCCCn1c(=S)[nH]c2cc3c(cc2c1=O)OCO3)N1CCN(C2CCCCC2)CC1,17.1

row,SMILES,"hERG current change (%, negative = inhibition) at 1uM [%]"
1,Cl.OC(COCc1ccccc1)CN1CCN(Cc2ccc3c(c2)OCO3)CC1 (centres unmarked),-0.707
2,O=C(Cn1nnc2ccccc2c1=O)NCc1ccco1,5.88
3,O=C(C1CCCCC1)N(Cc1ccccc1)c1ccccn1,7.48
4,Cc1ccc(N(C)C(=O)Oc2cccc3ccc(C)nc23)cc1,2.54
5,CCCCNC(=S)N(C)/N=C/c1c(F)cccc1F,5.85
6,COCCCNC(=O)C1CCC(CNS(=O)(=O)c2ccc(OC)cc2)CC1 (centres unmarked),-0.359
7,COC(=O)CCC(=O)OC1(C)C(=O)C2=CN(c3ccc(OC)cc3)C(c3ccc(OC)cc3)=CC2=C(Br)C1=O (centres unmarked),2.02
8,CCC(=NCCc1ccccc1)C1=C(O)CCC1=O,12.8
9,CC(=O)N/C(=N\OCc1ccccc1Cl)c1nonc1NC(C)=O,-2.95
10,CCN(CC)S(=O)(=O)c1ccc(C(=O)NC(C)(C)C)cc1,11.4
11,CC(C)CN(C(=O)CN1C(=O)C2CCCCC2C1=O)c1c(N)n(Cc2ccccc2)c(=O)[nH]c1=O (centres unmarked),5.94
12,CCN(CC)C(=O)CN1C(=O)/C(=C/c2ccccc2)SC1=S,-2.29
13,O=S(=O)(c1ccc(-c2csc(-c3cccnc3)n2)cc1)N1CCCC1,3.52
14,CC(NCc1ccc(OCc2ccc(Cl)cc2)cc1)C(O)c1ccccc1.Cl (centres unmarked),-31.1
15,O=C(C1=C(O)C(=O)N(Cc2cccnc2)C1c1ccccn1)c1cccs1 (centres unmarked),9.79
16,COc1ccccc1NC(=S)NCCc1ccc(OC)c(OC)c1,7.08
17,O=C(c1ccc(F)cc1)N1CCN(C(=O)c2ccc([N+](=O)[O-])cc2)CC1,-13.7
18,COc1ccccc1-n1c(SCC(=O)N2CCOCC2)nc(O)c(Cc2ccccc2)c1=O,18.4
19,O=C(/C=C(/c1ccc(Cl)cc1)n1cncn1)c1ccccc1,4.14
20,O=C(NCC1CCCO1)c1ccccc1NS(=O)(=O)c1ccc(F)cc1 (centres unmarked),11.3
21,COc1ccc(-c2[nH]ncc2Oc2ccccc2OC)c(O)c1,-4.43
22,CCN(C(=O)CN1C(=O)S/C(=C\C=C\c2ccccc2)C1=O)C1CCS(=O)(=O)C1 (centres unmarked),18.2

row,SMILES,"hERG current change (%, negative = inhibition) at 1uM [%]"
1,CN(C)S(=O)(=O)c1cc(NC(=O)COC(=O)c2ccc3c(c2)OCO3)ccc1Cl,12.2
2,CC(/C=C/C1[C@H](C)C[C@H](O[C@@H]2O[C@H](CO)[C@@H](O)[C@H](O)[C@H]2O)CC1(C)C)O[C@H]1O[C@H](CO)[C@@H](O)[C@H](O)[C@H]1O (some centres unmarked),10.3
3,O=[N+]([O-])c1cc([N+](=O)[O-])c(Oc2cc(F)cc(F)c2F)cc1NN1CCCCC1,8.95
4,COc1ccc(NC(=O)Nc2cccc(NC(C)=O)c2)c(OC)c1,17.6
5,CCOC(=O)[C@H]1[C@H]2COc3cc(OC)ccc3[C@@H]2N2C(=O)N(c3ccc(Br)cc3)C(=O)[C@@]12C,10.4
6,O=C(COc1ccc(S(=O)(=O)N2CCOCC2)cc1Cl)NCc1ccco1,11
7,O=C(COC(=O)c1ccccc1[N+](=O)[O-])Nc1cc(S(=O)(=O)N2CCOCC2)ccc1N1CCCC1,6.67
8,Cl.O=C(CS(=O)(=O)c1ccccc1)N(CCCN1CCOCC1)c1nc2c(F)cccc2s1,21.9
9,CCc1nccn1S(=O)(=O)c1cc(OC)ccc1OC,13.4
10,O=C(c1ccc2nc(Cc3ccccc3F)oc2c1)N1CCCC1,2.92
11,CC(=O)Nc1cccc(C(=O)OCC(=O)Nc2ccc(Cl)cn2)c1,15.4
12,CCOC(=O)C1(Cc2ccccc2Cl)CCN(S(C)(=O)=O)CC1,6.64
13,O=C(Cc1ccc(Br)cc1)N1CCOCC1,10.2
14,CCNc1[nH]c(=O)n(C)c(=O)c1N=O,9.88
15,CN(C)C(=O)CSc1nnc(Cc2ccccc2)n1CC1CCCO1 (centres unmarked),3.28
16,COc1c2occc2c(OC)c2c(=O)cc(C(F)(F)C(F)(F)F)oc12,6.75
17,O=C(CSc1nc2ccccc2o1)N1CCN(c2ccc(Cl)cc2)CC1,9.85
18,COc1ccc(SCCN2CCN(CC(C)C)CCC2=O)cc1,-9.25
19,Cc1ccc(/C=N/n2c(-c3cccnc3)n[nH]c2=S)o1,8.13
20,COc1ccc(C(=O)Nc2ccc(CN3CCS(=O)(=O)CC3)cc2)cc1,10.2
21,CCc1ccc(CN(C)C(=O)c2cc(=O)c3ccccc3o2)cc1,-22.7
22,CC(=O)NN1C(=O)/C(=C/c2ccc(Br)o2)SC1=S,12.2

row,SMILES,"hERG current change (%, negative = inhibition) at 1uM [%]"
1,COc1ccc(OCC(=O)NC(=S)Nc2ccc(N3CCOCC3)c(Cl)c2)cc1,0.926
2,Cc1cc(NC(=O)c2cc(-c3ccccc3Cl)nc3ccccc23)no1,11.9
3,Nc1nc(Nc2ccccc2F)nc(NCc2ccco2)c1[N+](=O)[O-],5.93
4,Cc1ccccc1OCC(O)CN1CCCCC1.Cl (centres unmarked),16.2
5,NC(=O)C(CC(=O)O)NC(=O)[C@@H]1CCCNc2c(I)cc([N+](=O)[O-])cc2C(=O)N[C@@H](CO)C(=O)N[C@@H](Cc2ccc(O)cc2)C(=O)N1 (some centres unmarked),11.6
6,CCC(CC)C(=O)c1c[nH]c(C(=O)N2CCN(c3ccc(OC)cc3)CC2)c1,7.37
7,COc1ccc(OC)c(C(C)NC(=O)c2ccc(Br)cc2)c1 (centres unmarked),2.08
8,c1ccc2c(c1)CCN(c1ncnc3nc[nH]c13)C2,14.3
9,Cc1cccc(NC(=O)C2(c3cccs3)CCOCC2)c1,4.69
10,Oc1cccnc1Sc1cccc(C(F)(F)F)c1,21.9
11,CC[C@@H](C(=O)n1nc(C)cc1C)[C@H](NS(=O)(=O)c1ccc(C)cc1)c1ccccc1,5.06
12,COc1cc(/C=C/C(=O)NC(C)(C)C)ccc1OCc1ccccc1,6.93
13,CSc1c(CC(=O)NCCCO)n(Cc2ccccc2)c2ccccc12,8.55
14,CCOC(=O)c1ccc(NC(=O)Nc2ncc(Cl)cc2Cl)cc1,16.5
15,CN1CCN(C(=O)CCN2C(=O)c3ccccc3C2=O)CC1,13.8
16,Cc1cc(OC(=O)c2ccc(S(=O)(=O)N3CCCC3)cc2)c([N+](=O)[O-])c(=O)[nH]1,0.817
17,Cc1ccccc1S(=O)(=O)Cc1ccc(C(=O)NCCN2CCCCC2C)o1 (centres unmarked),-6.49
18,CC(c1ccccc1C(O)(c1ccccc1)c1ccccc1)N(C)C (centres unmarked),2.37
19,O=C(c1ccccc1Cc1ccccc1)N1CCN(S(=O)(=O)c2ccccc2)CC1,16
20,CN(C)CCc1c[nH]c2ccc(C[C@H]3COC(=O)N3)cc12,1.64
